# Where “and” joins values, the source holds several entries; their conditions need not be identical. Identical values can stand only once. Inconclusive results, whose numbers are uncertain, are shown with a selection of clear calls. For some assays here: A potency beside an inconclusive call is a rough fit, not a confirmed value. Calls of active or inactive are those of the source. Unless noted, calls come from the whole dose curve.
# Experiments:
# [1] = qHTS assay to identify small molecule agonists of the farnesoid-X-receptor (FXR) signaling pathway - cell viability counter screen (AID 743218; active = well fitted curve in the direction sought with a large enough effect in the repeat runs; inconclusive = weak or mixed curves; inactive = no such curve, though single readings can be large; an effect the other way counts as inactive or inconclusive; note: nearly all actives have a fitted effect of over 45% in size; note: potency is the fitted concentration of half-maximal effect; for viability change, negative = cytotoxic: % is set by controls: 0 for no effect and ±100 for the full control effect); conditions: FXR-bla HEK293T viability, CellTiter-Glo luminescence, 16 h; viability change, negative = cytotoxic: at 62.6 µM (top of the series) unless noted
# Summary of the method: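 After 16 h at 37 C with test compounds, FXR-bla HEK 293T cells were given LiveBLAzer B/G substrate for 2 h at RT and then CellTiter-Glo; luminescence was taken after 30 min.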
# [2] = biological target: Vitamin D3 receptor (Homo sapiens) (UniProt P11473); assay: qHTS assay to identify small molecule antagonists of the vitamin D receptor (VDR) signaling pathway (AID 743223; active = well fitted inhibition curve with a large enough effect in the signal ratio in the repeat runs, not every such curve was filed as active; inconclusive = weak or mixed curves, or effect the other way; inactive = no such curve, though single readings can be large or run the other way; the % refers to the signal ratio; note: potency is the fitted concentration of half-maximal effect); conditions: VDR-UAS-bla HEK293T, beta-lactamase FRET ratio, 16 h
# UniProt P11473, sequence (P11473 whole entry, looked up): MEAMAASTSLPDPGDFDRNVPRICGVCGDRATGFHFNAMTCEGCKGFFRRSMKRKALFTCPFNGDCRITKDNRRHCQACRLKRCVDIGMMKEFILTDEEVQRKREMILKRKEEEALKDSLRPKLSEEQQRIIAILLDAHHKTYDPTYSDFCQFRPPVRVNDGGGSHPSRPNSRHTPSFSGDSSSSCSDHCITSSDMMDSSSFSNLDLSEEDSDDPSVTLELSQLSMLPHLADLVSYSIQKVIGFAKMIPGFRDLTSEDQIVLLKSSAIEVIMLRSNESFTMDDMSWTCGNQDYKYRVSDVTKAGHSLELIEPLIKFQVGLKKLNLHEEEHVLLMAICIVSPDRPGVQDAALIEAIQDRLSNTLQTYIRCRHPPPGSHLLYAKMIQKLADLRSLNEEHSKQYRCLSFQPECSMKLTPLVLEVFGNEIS
# Summary of the method: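 Cells carrying a VDR-driven beta-lactamase reporter (VDR-bla) were co-treated with compound and 3 nM final 1alpha,25-dihydroxyvitamin D3 for 16 h at 37C; reporter activity was measured as FRET substrate fluorescence after 2 h at room temperature.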
# [3] = qHTS assay to identify small molecule agonists of the endoplasmic reticulum stress response signaling pathway (AID 1159516; active = well fitted activation curve with a large enough effect in the signal ratio in the repeat runs, not every such curve was filed as active; inconclusive = weak or mixed curves, or effect the other way; the % refers to the signal ratio; note: potency is the fitted concentration of half-maximal effect; for activation: % is set by controls: 0 for no effect and ±100 for the full control effect); conditions: ESRE-bla HeLa, ER stress beta-lactamase reporter, 5 h; activation: at 61 µM (top of the series) unless noted
# Summary of the method: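 Reporter HeLa cells (ESRE-beta-lactamase) underwent 5 hr compound incubation at 37 C and 5% CO2 in quantitative HTS format. Detection followed 2 hr of FRET substrate loading at room temperature.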
# [4] = qHTS assay to identify small molecule agonists of the AP-1 signaling pathway (AID 1159526); conditions: ME-180 (cervical carcinoma) AP-1-bla reporter, beta-lactamase FRET ratio, 5 h; activation: at 76.8 µM (top of the series) unless noted; note: potency is the fitted concentration of half-maximal effect
# [5] = biological target: Retinoic acid receptor RXR-alpha (Homo sapiens) (UniProt P19793); assay: qHTS assay to identify small molecule agonists of the RXR signaling pathway (AID 1159527); conditions: HEK293T RXRa-UAS-bla, beta-lactamase ratio, 16 h; activation: at 76.8 µM (top of the series) unless noted; note: nearly all actives have a fitted effect of over 35% in size; note: potency is the fitted concentration of half-maximal effect
# UniProt P19793, sequence (P19793 whole entry, looked up): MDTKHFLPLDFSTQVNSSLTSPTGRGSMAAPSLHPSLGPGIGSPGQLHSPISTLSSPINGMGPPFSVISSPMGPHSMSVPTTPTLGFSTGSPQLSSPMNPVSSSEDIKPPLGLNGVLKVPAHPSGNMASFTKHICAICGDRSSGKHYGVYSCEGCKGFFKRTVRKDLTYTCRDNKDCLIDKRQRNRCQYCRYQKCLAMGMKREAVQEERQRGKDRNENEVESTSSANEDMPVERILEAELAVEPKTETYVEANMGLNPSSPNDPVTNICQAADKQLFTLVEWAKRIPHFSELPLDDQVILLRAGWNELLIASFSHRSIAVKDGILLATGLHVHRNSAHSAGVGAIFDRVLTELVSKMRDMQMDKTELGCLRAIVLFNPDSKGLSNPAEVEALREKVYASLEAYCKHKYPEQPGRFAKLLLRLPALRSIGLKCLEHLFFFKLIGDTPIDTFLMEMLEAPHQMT
# Summary of the method: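 Cells plated at 2,000/well, rested 5 hr at 37 C, pin-dosed with DMSO compound solutions, incubated 16 hr, then loaded with B/G FRET substrate for 2 hr at RT before dual-emission fluorescence reading.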
# [6] = biological target: Peroxisome proliferator-activated receptor delta (Homo sapiens) (UniProt Q03181); assay: qHTS assay to identify small molecule antagonists of the peroxisome proliferator-activated receptor delta (PPARd) signaling pathway (AID 743215; active = well fitted inhibition curve with a large enough effect in the signal ratio in the repeat runs, not every such curve was filed as active; inconclusive = weak or mixed curves, or effect the other way; inactive = no such curve, though single readings can be large or run the other way; the % refers to the signal ratio;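 note: cells stimulated with agonist L165041 at 300 nM final during compound exposure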; note: potency is the fitted concentration of half-maximal effect); conditions: HEK293H PPARd-UAS-bla, beta-lactamase FRET ratio, antagonist, 17 h; ratio activity, negative = inhibition: at 62 µM (top of the series) unless noted
# UniProt Q03181, sequence (Q03181 whole entry, looked up): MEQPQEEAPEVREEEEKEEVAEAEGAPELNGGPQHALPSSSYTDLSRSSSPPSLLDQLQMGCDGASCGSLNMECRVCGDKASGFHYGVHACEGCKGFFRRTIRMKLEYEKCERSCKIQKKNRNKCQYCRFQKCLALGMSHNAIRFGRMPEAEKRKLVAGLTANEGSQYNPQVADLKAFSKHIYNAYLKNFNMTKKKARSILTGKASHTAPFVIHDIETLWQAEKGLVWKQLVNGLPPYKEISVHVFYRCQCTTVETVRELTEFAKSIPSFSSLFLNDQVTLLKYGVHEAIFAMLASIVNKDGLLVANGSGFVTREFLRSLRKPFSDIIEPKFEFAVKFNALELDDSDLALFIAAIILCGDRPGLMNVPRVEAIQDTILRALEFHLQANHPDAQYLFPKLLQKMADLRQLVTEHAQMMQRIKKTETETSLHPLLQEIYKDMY
# Summary of the method: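 With L165041 present at 300 nM final, compounds were incubated 17 h at 37 C on PPARd UAS-bla HEK293H cells. A FRET-based beta-lactamase substrate was then applied for 2 h at room temperature and fluorescence intensity recorded.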
# [7] = biological target: Bile acid receptor (Homo sapiens) (UniProt Q96RI1); assay: qHTS assay to identify small molecule antagonists of the farnesoid-X-receptor (FXR) signaling pathway (AID 743217; active = well fitted inhibition curve with a large enough effect in the signal ratio in the repeat runs, not every such curve was filed as active; inconclusive = weak or mixed curves, or effect the other way; inactive = no such curve, though single readings can be large or run the other way; the % refers to the signal ratio; note: % is set by controls: 0 for no effect and ±100 for the full control effect); conditions: HEK293T FXR-UAS-bla, beta-lactamase ratio, CDCA-stimulated, 16 h; activity change, negative = inhibition: at 62.6 µM (top of the series) unless noted
# UniProt Q96RI1, sequence (Q96RI1 whole entry, looked up): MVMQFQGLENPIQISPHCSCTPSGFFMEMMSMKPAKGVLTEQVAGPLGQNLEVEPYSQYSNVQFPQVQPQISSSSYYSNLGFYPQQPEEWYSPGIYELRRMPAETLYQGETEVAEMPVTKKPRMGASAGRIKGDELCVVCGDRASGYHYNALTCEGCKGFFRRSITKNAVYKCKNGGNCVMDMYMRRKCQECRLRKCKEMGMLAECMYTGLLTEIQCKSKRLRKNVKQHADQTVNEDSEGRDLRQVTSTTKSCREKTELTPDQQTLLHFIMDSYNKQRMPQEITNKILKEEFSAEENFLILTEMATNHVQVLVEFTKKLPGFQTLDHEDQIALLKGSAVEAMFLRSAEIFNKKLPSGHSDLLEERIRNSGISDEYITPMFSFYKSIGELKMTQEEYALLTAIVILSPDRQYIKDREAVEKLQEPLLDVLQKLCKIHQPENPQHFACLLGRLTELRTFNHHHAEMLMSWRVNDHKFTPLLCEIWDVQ
# Summary of the method: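 In this cell-based antagonist screen, inhibition of CDCA-driven (50 uM final) UAS-beta-lactamase expression in HEK 293T cells was measured by FRET fluorescence following 16 h compound exposure at 37 °C.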
# [8] = qHTS assay to identify small molecule antagonists of the vitamin D receptor (VDR) signaling pathway - cell viability counter screen (AID 743225; active = well fitted curve in the direction sought with a large enough effect in the repeat runs; inconclusive = weak or mixed curves; inactive = no such curve, though single readings can be large; an effect the other way counts as inactive or inconclusive; note: % is set by controls: 0 for no effect and ±100 for the full control effect; nearly all actives have a fitted effect of over 50% in size); conditions: VDR-bla HEK293T viability, CellTiter-Glo luminescence, 16 h; viability change, negative = cytotoxic: at 61 µM (top of the series) unless noted
# Summary of the method: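 HEK293T VDR-bla; cpd + 1a,25-(OH)2D3 3 nM final, 16 h 37C/5% CO2; B/G FRET substrate 2 h RT; then CellTiter-Glo 30 min RT, luminescence.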
# [9] = qHTS assay to identify small molecule agonists of the RXR signaling pathway - cell viability counter screen (AID 1159529; active = well fitted curve in the direction sought with a large enough effect in the repeat runs; inconclusive = weak or mixed curves; inactive = no such curve, though single readings can be large; an effect the other way counts as inactive or inconclusive;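 note: HEK 293T cells carrying an RXR-alpha UAS beta-lactamase reporter; % is set by controls: 0 for no effect and ±100 for the full control effect; nearly all actives have a fitted effect of over 50% in size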)
# Summary of the method: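 Steps: seed RXR-alpha-UAS-bla HEK 293T cells in assay medium containing 2% charcoal-stripped FBS; incubate 5 hr; add compounds in DMSO; incubate 16 hr at 37 C; after the bla read, add CellTiter-Glo and read luminescence at 30 min.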
# [10] = biological target: Bile acid receptor (Homo sapiens) (UniProt Q96RI1); assay: qHTS assay to identify small molecule agonists of the farnesoid-X-receptor (FXR) signaling pathway (AID 743220; active = well fitted activation curve with a large enough effect in the signal ratio in the repeat runs, not every such curve was filed as active; inconclusive = weak or mixed curves, or effect the other way; the % refers to the signal ratio; note: potency is the fitted concentration of half-maximal effect); conditions: HEK293T FXR-UAS-bla, beta-lactamase FRET ratio, 16 h; activation: at 62.6 µM (top of the series) unless noted
# Summary of the method: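 Beta-lactamase reporter under UAS control in GeneBLAzer FXR HEK 293T cells (5000/well) measured with LiveBLAzer FRET substrate after 2 h at room temperature. Compound exposure lasted 16 h at 37C.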
# [11] = qHTS assay to identify small molecule agonists of the vitamin D receptor (VDR) signaling pathway - cell viability counter screen (AID 743224; active = well fitted curve in the direction sought with a large enough effect in the repeat runs; inconclusive = weak or mixed curves; inactive = no such curve, though single readings can be large; an effect the other way counts as inactive or inconclusive; note: potency is the fitted concentration of half-maximal effect; nearly all actives have a fitted effect of over 50% in size); conditions: VDR-bla HEK293T viability, CellTiter-Glo luminescence, 16 h; activity change, negative = cytotoxicity: at 62.6 µM (top of the series)
# Summary of the method: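 Here cell health was gauged by luminescent ATP detection (CellTiter-Glo, 30 min RT) in VDR-bla cells that had been incubated with test compounds for 16 h at 37C and 5% CO2.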
# [12] = qHTS assay to identify small molecule antagonists of the peroxisome proliferator-activated receptor delta (PPARd) signaling pathway - cell viability counter screen (AID 743213; active = well fitted curve in the direction sought with a large enough effect in the repeat runs; inconclusive = weak or mixed curves; inactive = no such curve, though single readings can be large; an effect the other way counts as inactive or inconclusive; note: nearly all actives have a fitted effect of over 50% in size; note: potency is the fitted concentration of half-maximal effect); conditions: PPARd-bla HEK293H viability, CellTiter-Glo luminescence, 17 h; viability change, negative = cytotoxic: at 62 µM (top of the series) unless noted
# Summary of the method: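 PPARd-bla HEK293H cells were treated with compounds plus agonist L165041 (300 nM final) for 17 h at 37 C. Viability was then read in the same wells by CellTiter-Glo luminescence after 30 min at room temperature.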
# [13] = biological target: Peroxisome proliferator-activated receptor delta (Homo sapiens) (UniProt Q03181); assay: qHTS assay to identify small molecule agonists of the peroxisome proliferator-activated receptor delta (PPARd) signaling pathway (AID 743212); conditions: HEK293H PPARd-UAS-bla, beta-lactamase FRET ratio, 17 h; activation: at 62.6 µM (top of the series) unless noted; note: potency is the fitted concentration of half-maximal effect
# Summary of the method: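 GeneBLAzer UAS-bla HEK293H cells carrying a PPARδ construct were exposed to compounds at 37 °C. Beta-lactamase activity was read by FRET fluorescence after 2 h at room temperature with LiveBLAzer B/G substrate.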
# [14] = biological target: Vitamin D3 receptor (Homo sapiens) (UniProt P11473); assay: qHTS assay to identify small molecule agonists of the vitamin D receptor (VDR) signaling pathway (AID 743222); conditions: HEK293T VDR-UAS-bla, beta-lactamase FRET ratio, 16 h; activation: at 63.5 µM (top of the series) unless noted; note: % is set by controls: 0 for no effect and ±100 for the full control effect
# Summary of the method: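 VDR-bla cells were seeded, left 4 h, treated with compounds in DMSO for 16 h, incubated 2 h at RT with B/G FRET substrate, and read for fluorescence.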
# [15] = activity change, negative = inhibition: at 61 µM (top of the series) unless noted
# Tags give direction and shape of the fitted curve or compound fluorescence and quenching.
smiles,measurement,setting,value
O=C(O)C(=O)Cc1c[nH]c2ccccc12,Potency,[1],inactive
same,Potency,[2]; [15],"inconclusive: 0.155 µM [fluorescent, full curve, poor fit]"
same,Potency,[3],inactive
same,Potency,[4],"inconclusive: 61.6 µM [falling, partial curve, poor fit]"
same,activation,[5],inconclusive: -22.7%
COc1cc(-c2ccc(N=C=O)c(OC)c2)ccc1N=C=O,Potency,[6],"inconclusive: 8.44 µM [fluorescent, partial curve, poor fit]"
same,Potency,[1],inconclusive: 0.0008 µM
same,Potency,[3],"inconclusive: 26.7 µM [cytotoxic, partial curve, poor fit]"
same,activation,[4],inconclusive: -5.69% [at 35.3 µM]
CCCC(=O)CC,Potency,[6],inactive
same,Potency,[3],inactive
same,Potency,[4],inactive
CCOc1ccc2ccccc2c1C(=O)N[C@@H]1C(=O)N2[C@@H]1SC(C)(C)[C@@H]2C(=O)O,"activity change, negative = inhibition",[7],inconclusive: 28.3%
same,Potency,[8],inactive
same,Potency,[3],"inconclusive: 0.674 µM [inhibitor, partial curve, poor fit]"
same,Potency,[4],inactive
same,Potency,[9],inactive
CC(C)[C@@H]1CC[C@@H](C)C[C@H]1O,"viability change, negative = cytotoxic",[1],inconclusive: 33.4% [at 81.1 µM]
same,Potency,[10],inactive
same,"activity change, negative = inhibition",[2]; [15],inconclusive: 8.03%
same,"activity change, negative = inhibition",[2]; at 61 µM (top of the series),inactive: -26.5%
same,"activity change, negative = inhibition",[2]; at 78.8 µM (top of the series),inactive: 2.16% and inactive: -3.16% and inactive: 9.64%
same,Potency,[11],"inconclusive: 4.9 µM [cytotoxic, full curve]"
same,Potency,[3],"inconclusive: 54.9 µM [activator, single point]"
same,Potency,[4],"inconclusive: 40.1 µM [falling, partial curve, poor fit]"
same,Potency,[5],"inconclusive: 27.9 µM [activator, partial curve]"
CCOc1ccc(OCC)c(Cl)c1,Potency,[12],inactive
same,Potency,[6],"inconclusive: 54.9 µM [activator, single point]"
same,Potency,[1],"inconclusive: 0.0055 µM [rising, full curve, poor fit]"
same,Potency,[3],inactive
same,Potency,[4],inactive
C[C@@H](O)[C@H]1C(=O)N2C(C(=O)O)=C([C@H]3CCCO3)S[C@H]12,activation,[13],inconclusive: 1.31%
same,Potency,[7],inactive
same,Potency,[3],inconclusive: 13.4 µM [inhibitor]
same,activation,[4],inconclusive: -23.1% [at 35.3 µM]
CC1(C)CCC(C)(C)c2cc(NC(=O)c3ccc(C(=O)O)cc3)ccc21,Potency,[10],inconclusive: 33.5 µM [activator]
same,Potency,[3],inactive
same,activation,[4],inconclusive: -18.9% [at 35.3 µM]
same,Potency,[5],"inconclusive: 0.0169 µM [activator, full curve]"
NC(=O)c1ccc([N+](=O)[O-])cc1,"activity change, negative = inhibition",[2]; [15],inconclusive: 8.82%
same,Potency,[3],inactive
same,Potency,[4],inactive
same,Potency,[5],inactive
CCOc1ccccc1O[C@H](c1ccccc1)[C@H]1CNCCO1,Potency,[12],"inconclusive: 3.35 µM [cytotoxic, single point]"
same,"activity change, negative = inhibition",[7],inconclusive: 1.28%
same,Potency,[3],"inconclusive: 7.56 µM [falling, partial curve, poor fit]"
same,Potency,[4],"inconclusive: 21.3 µM [falling, partial curve, poor fit]"
same,Potency,[9],inactive
CC(CN(C)C)C(C)(O)Cc1ccc(Cl)cc1 (stereo unspecified),Potency,[12],"inconclusive: 2.98 µM [cytotoxic, full curve, poor fit]"
same,Potency,[3],"inconclusive: 0.0535 µM [rising, partial curve]"
same,Potency,[4],inactive
CCOC(=O)N1CCC(Nc2ccc(Cl)cc2N)CC1,Potency,[13],"inconclusive: 23.7 µM [rising, single point]"
same,"ratio activity, negative = inhibition",[6],inconclusive: -3.34%
same,activation,[14],inconclusive: -21.9%
same,Potency,[3],"inconclusive: 9.52 µM [rising, partial curve, poor fit]"
same,Potency,[4],inactive
